Experimental data taken from the supplement of paper PMC3334620.
Whole data set: some 33,000 sequences, median “E-score (-0.5 to 0.5)” near -0.053, cut for the highest 2% near 0.37. This is one part of the list.

Molecular target: Hap1 (UniProt P0CE41)
Assay: PBM E-score (8-mer binding enrichment) (E-score (-0.5 to 0.5)); higher = stronger / more preferred TF binding; most listed sequences are background and not binding sites
Conditions: protein concentration: 200 nM; construct: GST-DNA-binding domain
Summary of the method: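 Detection of bound protein used fluorescent anti-GST, with scans normalised by masliner. The proteins were GST-tagged yeast transcription factors applied at about 100-200 nM to universal all-10-mer Agilent arrays made double-stranded by primer extension. Each ungapped eight-base word, pooled with its reverse complement, was scored with an E-score from the Universal PBM Analysis Suite.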

UniProt P0CE41, sequence (P0CE41 whole entry): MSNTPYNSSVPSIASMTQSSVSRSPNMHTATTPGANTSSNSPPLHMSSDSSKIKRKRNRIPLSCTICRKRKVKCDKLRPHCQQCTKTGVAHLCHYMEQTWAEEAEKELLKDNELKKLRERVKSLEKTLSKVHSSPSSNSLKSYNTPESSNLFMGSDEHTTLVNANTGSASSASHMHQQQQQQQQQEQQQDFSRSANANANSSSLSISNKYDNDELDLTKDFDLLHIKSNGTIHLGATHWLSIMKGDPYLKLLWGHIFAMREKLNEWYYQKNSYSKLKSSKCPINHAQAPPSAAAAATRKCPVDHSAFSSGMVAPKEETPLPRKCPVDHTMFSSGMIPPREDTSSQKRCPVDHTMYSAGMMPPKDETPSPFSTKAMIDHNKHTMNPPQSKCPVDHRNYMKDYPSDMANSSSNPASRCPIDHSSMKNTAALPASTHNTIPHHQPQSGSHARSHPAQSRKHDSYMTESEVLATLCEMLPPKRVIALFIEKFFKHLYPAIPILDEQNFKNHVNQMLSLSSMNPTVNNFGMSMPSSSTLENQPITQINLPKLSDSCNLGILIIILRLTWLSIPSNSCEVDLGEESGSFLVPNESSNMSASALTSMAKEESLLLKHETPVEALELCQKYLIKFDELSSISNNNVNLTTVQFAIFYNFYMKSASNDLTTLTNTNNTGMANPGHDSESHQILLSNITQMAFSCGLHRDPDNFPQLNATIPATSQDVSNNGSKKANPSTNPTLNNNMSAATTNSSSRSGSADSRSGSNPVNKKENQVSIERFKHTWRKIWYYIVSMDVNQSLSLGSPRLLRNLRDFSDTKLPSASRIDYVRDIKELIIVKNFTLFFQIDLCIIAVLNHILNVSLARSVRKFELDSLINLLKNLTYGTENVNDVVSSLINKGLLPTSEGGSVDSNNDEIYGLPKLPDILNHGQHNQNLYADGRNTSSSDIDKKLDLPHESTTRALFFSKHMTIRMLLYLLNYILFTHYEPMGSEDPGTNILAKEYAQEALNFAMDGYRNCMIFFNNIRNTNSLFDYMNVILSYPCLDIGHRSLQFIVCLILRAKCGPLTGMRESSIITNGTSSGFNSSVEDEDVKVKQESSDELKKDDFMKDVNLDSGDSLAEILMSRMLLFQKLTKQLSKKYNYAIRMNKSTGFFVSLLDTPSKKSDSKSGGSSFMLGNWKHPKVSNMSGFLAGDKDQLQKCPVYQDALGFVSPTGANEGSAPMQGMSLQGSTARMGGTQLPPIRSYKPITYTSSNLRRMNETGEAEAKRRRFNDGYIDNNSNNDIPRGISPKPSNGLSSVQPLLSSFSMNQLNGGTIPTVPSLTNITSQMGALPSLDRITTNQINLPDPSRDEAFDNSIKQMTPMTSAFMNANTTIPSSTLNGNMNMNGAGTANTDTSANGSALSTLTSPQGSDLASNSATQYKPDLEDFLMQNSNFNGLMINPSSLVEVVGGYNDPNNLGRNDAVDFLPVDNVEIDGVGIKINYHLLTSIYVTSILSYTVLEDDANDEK

Sequence	PBM E-score
ACTTCCAG	-0.131
AGTAGCCG	0.209
CGCCCAAC	-0.0574
CAATGCGA	-0.13
ACCGCTGG	-0.0402
AGGGACAG	-0.274
TTACCTAA	-0.109
GAATATTA	0.0958
GGGCGTAC	0.2
ACCATTTA	-0.117
CTGCGGTA	0.191
CCAATGCG	-0.169
GTTGAAGA	-0.214
CAGACGTA	-0.0717
GACCAAGA	-0.0391
TTCACAAA	-0.051
CAGGGATA	-0.218
GCTCATCC	0.0138
CCCAGCTA	-0.276
AAACCGCC	0.148
CGCACGTA	-0.0134
ACGCCCCC	0.0965
GAGATTGA	-0.113
CATTCCCA	-0.105
ATGCCGCA	0.113

Sequence	PBM E-score
ACCTGGAA	-0.187
AGACGACA	-0.101
ACCATAAG	-0.188
ATATCTGA	-0.126
GAGGCAAC	0.00569
AAGGGATG	-0.238
CGCTGCTA	0.149
TCCACCGA	0.227
ACGTCCAA	-0.0855
GTTGGTAA	-0.214
CGTGGAGA	0.0328
ACGATTCG	0.133
GGCTTAAC	0.067
ATGAGCGG	0.0871
CCCAGGTA	-0.25
CCCCTCGA	-0.119
CAATGGGC	-0.178
GCTTATAC	-0.0126
AGAGAGTA	-0.0569
TCTGGAAA	-0.139
AGTGCCTC	-0.167
CGCGATAG	0.2
AAACGCAC	-0.0629
GAGAACTC	-0.0497
AACAGCCC	0.0167

Sequence	PBM E-score
ATCGTACG	0.0112
GATCTCAC	-0.0618
ATCTATGC	-0.128
TCTCGTCA	-0.12
CCGACTAA	0.253
AAGATCAA	-0.203
GACACTAA	0.0222
AATAGCCA	-0.249
GTTGCAAA	-0.0687
AATTAATC	-0.0343
CTGCATGC	-0.0792
AGGGTCTC	-0.204
CTCCGCGC	0.294
AAACGCGC	0.0907
CGTGTGCA	-0.102
CACCCGTC	0.146
CAAGTGGG	-0.132
CAACGGCC	0.0466
AAGTGTAA	-0.0967
ACTCACTG	-0.259
AACAACAA	-0.209
AAAGTCAT	-0.148
AGCCATTG	-0.333
AGATCCAC	0.0171
AATGTGAC	-0.128

Sequence	PBM E-score
GAGCGGAA	0.248
CACGAGGG	-0.0112
AGGACTAA	-0.0745
ACAGGTAG	-0.256
AGCAAGGA	-0.198
ATCAGACG	-0.1
ACTGCGGG	0.0676
TGGAGCAA	-0.195
AGAATAGC	-0.0642
ATCCTCGG	0.279
AGTCGTAC	-0.184
CCCAATAA	-0.0706
GCGTTGAC	-0.207
ACGAGGGG	-0.16
TACTGCTA	-0.0974
ATCTGCTC	-0.132
AAACACAT	-0.163
AGGGCCCT	-0.142
AAATGACT	-0.237
GCAGGTTA	0.0705
AATGCTGA	-0.19
GCCGCTGA	0.111
GACCCTCA	-0.151
GTATAAGA	-0.0203
CGAAGTCC	0.34

Sequence	PBM E-score
ATATACGC	-0.0579
TGCCCGCA	0.146
AGCTTACG	-0.168
CCCACCTC	-0.0704
GAGACAGC	-0.023
CCAAGTCG	-0.0324
GCAGATAA	0.184
AATTATGA	0.0985
CGAACTGA	0.00885
CGGAGACG	0.236
CGCCACTA	-0.0208
TCCACAGA	-0.15
GAACTCCA	-0.0677
CGCCTAAG	-0.116
ATCGTGCG	0.0258
AGTTGTAT	-0.0505
ATTACGGG	0.224
GAGCGTTA	-0.121
ATTGGCAC	-0.21
CTACGGAC	0.278
GATACGGA	0.329
TAAGATCA	-0.179
GCAAGCCA	-0.171
GAATATGC	0.0672
AGACACCA	-0.0418

Sequence	PBM E-score
ACCCCGCA	0.189
CCTGTTGA	-0.219
AGAGTACA	-0.15
AGGCAAAT	0.0779
AAAAACAG	-0.179
ATGCATGC	-0.138
TCGACCCA	-0.221
AACGGAAC	0.326
AGCAATAA	-0.171
GACTTGCA	-0.00655
AGATCGCT	0.0138
CTCGCTAA	0.0842
ATTCAAAT	-0.0286
AGTGCTGG	-0.185
GCCAGACA	-0.0406
GGTGTCAC	0.0348
ATACCGGG	0.416
CTACTGAC	-0.164
ACAAACTG	-0.159
AGGCGAGG	-0.0675
CGGGAAGA	0.282
ATGTTATC	0.0167
ATTCTCTG	-0.185
GAGCTATA	-0.179
AGTTATCA	-0.0683

Sequence	PBM E-score
CGCCTCCG	0.26
AGAACTAT	-0.062
ACCCGAGC	0.366
TGTATCAA	-0.114
CAGCAATG	-0.362
AGACGGTG	-0.0646
CAAGACAG	-0.115
ACGAGTTC	-0.155
CTACCTTC	-0.121
ACACAGAT	-0.213
CCCAGCGA	-0.136
GGCCAACA	0.139
GCCGCCGC	0.0563
ATGCCGAC	0.292
ATGGGGAC	0.0558
ACCTCTCA	0.00256
CTACTAAC	-0.214
AACGCCAC	-0.0199
CATGATTA	-0.018
CAAAGACG	0.0782
ACTACCCG	0.187
CTCATCGA	-0.0785
AAAGCAGC	-0.0887
GAACGCGC	0.216
GCGACGAC	-0.0585

Sequence	PBM E-score
AGAGTGGA	-0.26
CCATAGAG	-0.135
GCCGTTCA	0.0678
GAGACCTA	-0.0894
ACCACAAT	-0.00337
AATTCATG	-0.0646
CCACAAGG	-0.36
GCGGATCC	0.23
CCACTAGC	-0.221
CAATGCCC	0.114
CACCGATC	0.22
AGGTGAAA	-0.0443
ACTCACAA	-0.108
AGATCTAA	-0.137
AGAGTGCG	-0.0864
GCCCGTAA	0.26
CAGAGAAG	-0.111
GGAATAGA	0.0173
GAAGTTGA	0.00907
AAGGGTAT	0.0113
CGACCGAA	0.378
ATGAACAG	-0.176
CAGGCGTC	-0.104
ACTGACAG	-0.0855
AGGCTGAC	-0.308

Sequence	PBM E-score
CCATAATC	-0.0843
ATGCCGTG	-0.155
AAGCTAGC	-0.0783
CAATCGAC	-0.139
ACGAGAGT	-0.156
GTTATTTA	0.0775
AAAGCTGA	-0.106
AGCTTAGC	-0.126
AGGTTTCC	-0.0729
AGAGGAAC	-0.241
CTCCTCCA	-0.216
ATGAATAG	-0.0153
AGCGTTAG	-0.0665
GTGAAAAA	0.0524
CCCTTAGG	-0.297
CGGCCTGA	0.183
AAGCGGCC	0.116
ATTTAGAA	-0.0389
CCGTACCG	0.242
CTGGTCAA	-0.0379
CTAGACCA	-0.239
ACGGAAGA	0.155
ATATTATA	-0.0547
ATACACCG	0.247
CACTCCTC	-0.127

Sequence	PBM E-score
CTACGACC	-0.0673
AGCTCCGG	0.43
AGGAGCTC	-0.15
AACCATTA	0.0172
CCGGTCTA	0.211
GAGGATGA	-0.179
AGACCATC	-0.179
CAGGTCTA	-0.217
CACGAGCG	-0.255
GGACCCAC	0.085
GGCACAAA	0.141
GACAAAGA	-0.0849
CAGTGTAA	-0.0473
AGTCTCGA	-0.17
CTTCTCCC	-0.102
GTCCAGCA	-0.333
CTGATACC	-0.23
AGAAATCG	0.0927
GACTCATA	-0.107
CGGCGCTC	0.23
TCGCGTAA	0.178
ATAATACG	0.145
AACGGAAA	0.385
CAGGCCCG	0.125
CACTCACG	-0.0945

Sequence	PBM E-score
ACATACTG	-0.0905
CGGTGCTC	0.161
CGCGAAAA	0.247
CCTAATCG	0.0853
CTTTTGAA	-0.118
CTTGGAGA	-0.0528
AAGTCTCA	-0.234
AAAGATAG	-0.134
CTAATGAA	-0.0291
AACGCATC	-0.0995
AGTTAAGC	0.0922
ACTAACAC	-0.057
CGGGCAGC	0.266
CACCCGCG	0.175
AGCCGTTA	0.297
GCGGGTCA	0.0979
CTAGTCAG	-0.4
GCCGCGGA	0.329
GAGACTAA	0.087
CAGAGTCA	-0.168
TATTCCCA	0.114
AGATGGTC	-0.051
CGGATCCG	0.401
GGCCCTAA	0.178
TATAGGGA	-0.0339

Sequence	PBM E-score
CCCCGTTA	0.203
AACGCTCT	-0.183
AGGAGGTC	-0.153
CAGCCCAG	-0.15
CGATCTTC	0.162
AACTACGG	0.193
ACATACCT	-0.197
GCGATTCC	0.211
GTACTGAC	-0.119
CTTACAAG	-0.285
AAATTTGA	-0.0325
ACCGACCC	0.265
GAGCCCGA	0.137
ACCGCAGT	0.106
AAAAGGAC	-0.193
AACCACTG	-0.0718
AAATGCCG	0.359
TCGGAGCA	0.367
CCGAACCA	0.268
AGCCCGCA	0.1
ACCTGAGA	-0.199
CCCTCTAC	-0.247
AATGATTC	0.00202
CAAACGGC	0.0742
ATTGAAGG	-0.226

Sequence	PBM E-score
CCTGTGAC	-0.277
AAGCTGAC	-0.0985
CCGGCATC	0.203
GAGATTGC	0.0468
AGCGTAGC	-0.0143
AATAGCGG	0.178
GAGTATTA	-0.121
CCTTCGTC	-0.164
CTCCGCCC	0.245
GCAGAGTA	-0.163
ACTCCCCA	-0.173
AGTGTCTA	-0.159
CCGCCCCA	0.15
CGTAATCA	-0.0549
CTTACTCC	0.129
ATGGGTAA	0.00081
GTGGCAAC	-0.151
CTATAGTC	-0.191
CAACACCG	0.13
ACTTACAA	-0.212
AAGAGTAA	-0.136
ATTCCTCG	0.131
AACCGTAT	-0.114
AGGCGACT	-0.0475
CCTAAGGA	-0.0581

Sequence	PBM E-score
CCCTATGC	-0.164
AGAAAGCG	-0.22
ACTTCGGA	0.403
AACAAGTC	-0.122
AAGACATA	-0.22
CTCGGGGA	0.36
CTCCAGAA	-0.216
ACATCTAT	0.0372
GGACATAA	0.337
AGCACCCC	-0.195
CGCGGGAA	0.312
GTGAGTTA	-0.157
AGTGATGA	-0.14
CTCGCAAG	-0.135
AGTATTAA	-0.0546
ATGGGGCA	-0.0948
CAACTGAA	-0.275
GGAGATCA	0.162
ACCCAGGC	0.00897
